Source: PubChem BioAssay AID1865 (National Center for Advancing Translational Sciences (NCATS), 2009)
In all, about 280,000 compounds went through this assay and about 540 (0.19%) were called active. This list was built around the results that the source calls inconclusive (neither active nor inactive); the mix of calls is not that of the screen. The call rests on the fitted dose curve; in most records, active means well fitted activation curve with a large enough effect; inconclusive means small, poorly fitted or top-dose-only effect; inactive means flat fitted curve, though single readings scatter. Potencies beside an inconclusive call are fits to weak or partial responses and may not hold up.

test: Quantitative High-Throughput Screen for Regulators of Epigenetic Control; details: murine LDR cells, GFP reporter derepression, 30 h; GFP activation: at 53.9 µM (top of the series); further: nearly all actives have a fitted effect of over 60% in size; on GFP activation: % of control where 0% means no effect
How it was run: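 Readout is the number of GFP-expressing murine LDR cells, counted by cytometry following washing. Cells were treated with compound for 30 h at 37 C; the stably integrated CMV-GFP locus is normally silent.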
Potency means the concentration at half of the fitted maximal effect; tags describe the fitted curve by direction and shape.

Row | SMILES | GFP activation | Potency
1 | CN1C(=O)CSc2ccc(NC(=O)NCCC3=CCCCC3)cc21 | inactive: -4.41% | –
2 | CCN1C(=O)/C(=C\N2CCN(c3ccc(F)cc3)CC2)SC1=S | – | inconclusive: 22.4 µM [activator, single point]
3 | Cc1coc(NC(=O)CSc2nc(-c3ccncc3)cc(C(F)(F)F)c2C#N)n1 | – | active: 12.6 µM
4 | CCOc1cc(/C=C2\CCC/C(=C\c3cc(Cl)c(O)c(OCC)c3)C2=O)cc(Cl)c1O | – | inconclusive: 35.5 µM [activator, single point]
5 | COc1cccc(C(=O)NCC2OCCc3ccccc32)c1 (stereo unspecified) | inactive: -0.962% | –
6 | Cc1c([N+](=O)[O-])c(C(=O)Sc2ccc(Br)cc2)nn1C | – | inconclusive: 25.1 µM [activator, single point]
7 | Cc1c(Cl)cccc1NC(=O)c1ccc2c(c1)nnn2C1CCCC1 | – | inconclusive: 10 µM [activator, partial curve]
8 | C=CCc1ccccc1OCC(=O)N/N=C/c1ccccc1OCC | – | inconclusive: 15.8 µM [activator, single point]
9 | CCCCC1=CC2=C(c3ccco3)C(=O)C(C)(OC(=O)c3ccc(OC)cc3)C(=O)C2=CN1C1CCCCC1 (stereo unspecified) | – | inconclusive: 3.98 µM [activator, full curve]
10 | Cc1cc(/C=C(\C#N)C(=O)NCc2cccs2)c(C)[nH]1 | – | inconclusive: 35.5 µM [activator, single point]
11 | CCOc1ccc(NC(=O)c2cc(=O)c3cc(CC)ccc3o2)cc1 | – | inconclusive: 35.5 µM [activator, single point]
12 | Oc1ccc(/C=C/c2nc(-c3ccccc3O)n(-c3ccccc3)n2)c(O)c1 | inactive: -4.89% | –
13 | CCOc1cc(Br)c(/C=C2/C(=O)N(C)C(=S)N2CC(=O)OC)cc1OC | – | inconclusive: 28.2 µM [activator, single point]
14 | COc1ccc2c(-c3ccccc3)cc(SCC(N)=O)nc2c1 | – | inconclusive: 35.5 µM [activator, single point]
15 | O=C(CSc1nc2ccsc2c(=O)n1-c1ccc(Br)cc1)NCc1ccccc1 | – | inconclusive: 35.5 µM [activator, single point]
16 | O=C(Oc1c(CN2CCOCC2)cc(Cl)c2cccnc12)c1ccc(F)cc1 | – | inconclusive: 5.01 µM [activator, single point]
17 | CCOC(=O)c1c(NC(=O)c2ccc(S(=O)(=O)N3CCC(C)CC3)cc2)sc2c1CCN(C(C)C)C2 | – | inconclusive: 15.8 µM [activator, partial curve]
18 | COc1ccc(CC2(CO)CCN(S(=O)(=O)c3sccc3C)CC2)cc1 | – | inconclusive: 17.8 µM [activator, single point]
19 | O=C(Nc1cccnc1)c1cnn2c(C(F)F)cc(C3CC3)nc12 | inactive: -1.56% | –
20 | Cc1ccc(C)c(NC(=S)Nc2cccc3cnccc23)c1 | inactive: -0.0685% | –
21 | CC1=Nc2ccccc2/C1=C/c1sc(=N)n(-c2nccs2)c1O | – | inconclusive: 31.6 µM [activator, single point]

Row | SMILES | GFP activation | Potency
22 | CCOC(=O)c1cnc2c(cnn2CC)c1NN=C(C)C | – | inactive
23 | CC(C)n1cc(-c2ccc(Cl)cc2)cc(C#N)c1=O | – | inconclusive: 5.01 µM [activator, single point]
24 | O=C(CSc1ccccn1)N/N=C/c1ccccc1[N+](=O)[O-] | inactive: 1.15% | –
25 | CCOC(=O)c1c(C)nc2ccccn12 | – | inconclusive: 4.47 µM [activator, partial curve]
26 | Oc1ccccc1/C=N/NC(=S)NC1CC2CC1C1C=CCC21 (stereo unspecified) | – | inconclusive: 31.6 µM [activator, single point]
27 | Cc1ccc(S(=O)(=O)Nc2ccc(-c3nnc(SCC#N)n3C)cc2)cc1 | inactive: 1.01% | –
28 | COc1ccccc1CC(=O)Nc1ccc(O)cc1C(=O)O | inactive: -1.03% | –
29 | O=[N+]([O-])c1ccc(Sc2cccc[n+]2[O-])c2nonc12 | – | inconclusive: 10 µM [activator, partial curve]
30 | CCCCCCCC(=O)N/N=C/c1ccc([N+](=O)[O-])o1 | inactive: 0.99% | –
31 | Cc1ccc(C2=NN(C(=O)c3cccs3)C(c3ccccc3O)C2)cc1 (stereo unspecified) | – | inconclusive: 22.4 µM [activator, single point]
32 | O=[N+]([O-])c1ccc(N(c2ccccc2)c2ccccc2)cc1 | – | inconclusive: 25.1 µM [activator, single point]
33 | Nc1c(C(=O)NC2CCCC2)sc2nc(-c3cccs3)ccc12 | – | inconclusive: 35.5 µM [activator, single point]
34 | COc1cc(-c2nc3ccc4ccccc4c3c3c2CCC3)cc(OC)c1OC | inactive: 0% | –
35 | CCOC(=O)c1c(-c2ccc(OC)cc2)cn2ccccc12 | – | inconclusive: 35.5 µM [activator, single point]
36 | CCOc1ccc(NC(=O)c2ccc3[nH]c(C)cc(=O)c3c2)cc1 | inactive: 6.51% | –
37 | C(=N\Nc1nc2ccccc2s1)/c1ccccn1 | – | inconclusive: 31.6 µM [activator, single point]
38 | CCOCCCn1c(=N)c(C(=O)NC(C)c2ccccc2)cc2c(=O)n3cc(C)ccc3nc21 (stereo unspecified) | – | inconclusive: 35.5 µM [activator, single point]
39 | CNC(=S)N/N=C/C1=CCC2CC1C2(C)C (stereo unspecified) | – | inconclusive: 28.2 µM [activator, single point]
40 | CN(C)c1cc[n+](CC(=O)c2ccc(-c3ccccc3)cc2)cc1 | inactive: -2.77% | –
41 | CCOc1ccc(C(=O)c2cn(CC(=O)Nc3ccc(OC)cc3)c3cc4c(cc3c2=O)OCO4)cc1 | – | inconclusive: 22.4 µM [activator, single point]
